Results published in PubChem BioAssay AID504832 (National Center for Advancing Translational Sciences (NCATS), 2011).
Out of some 310,000 compounds screened, about 18,000 (5.8%) were called active. Inconclusive means that the source gave no clear call. Such entries were picked first, then a sample of the others. Calls come from the whole dose curve; as a rule, active = well fitted inhibition curve with a large enough effect; inconclusive = small, poorly fitted or top-dose-only effect, or another doubt; inactive = no such curve, though single readings can be large or run the other way. No potency is given beside an inconclusive call; the fits are too rough.

Assay: Primary qHTS for delayed death inhibitors of the malarial parasite plastid, 48 hour incubation
Details: P. falciparum luciferase growth in erythrocytes; series mostly up to 28.7 µM
Outline: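 Luminescence readout; reporter = integrated firefly luciferase in P. falciparum. RBC culture at 2% hematocrit, 0.1% parasitemia final, 37 C/5% CO2; decreased signal taken as growth inhibition.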
Potency is the fitted concentration of half-maximal effect; tags give direction and shape of the fitted curve.

Row | Compound | Potency
1 | O=C(C(=O)N1CCN(Cc2ccc3c(c2)OCO3)CC1)c1c[nH]c2ccccc12 | inconclusive [inhibitor, single point]
2 | COc1ccc(NC(=O)CN2CCc3ccccc3C2)cc1OC | inconclusive [inhibitor, full curve, poor fit]
3 | CN(CC1CCOCC1)C(=O)CC1C(=O)NCCN1Cc1ccc(Cl)c(F)c1 (stereo not drawn) | inactive
4 | Oc1ccc(N=Nc2cccc(C(F)(F)F)c2)cc1C=Nc1ccc(N2CCOCC2)cc1 | inconclusive [inhibitor, partial curve, poor fit]
5 | COC(=O)c1cc(OC)c(OC)cc1NC(=S)N1CCN(c2ccccn2)CC1 | inconclusive [inhibitor, partial curve]
6 | COc1ccc(C(=O)NNC(=S)NC(=O)c2cccnc2)cc1 | inconclusive [inhibitor, partial curve, poor fit]
7 | CS(=O)(=O)NC1c2cccc3cccc(c23)C1Sc1nncn1/N=C/c1ccco1 (stereo not drawn) | inactive
8 | Cc1cc2cc(CN(Cc3cccs3)C(c3nnnn3C(C)(C)C)C(C)C)c3nnnn3c2cc1C (stereo not drawn) | inconclusive [inhibitor, full curve, poor fit]
9 | CCOCCCn1c(SCC(=O)Nc2cc(OC)ccc2OC)nc2ccccc2c1=O | active: 5.86 µM
10 | O=[N+]([O-])c1ccc(N2CCN(Cc3ccccc3)CC2)c(S(=O)(=O)N2CCOCC2)c1 | inconclusive [inhibitor, partial curve, poor fit]
11 | CC1CCCCN1S(=O)(=O)c1ccc2[nH]c(=O)cc(C(=O)NCCCN3CCCCCC3)c2c1 (stereo not drawn) | inconclusive [inhibitor, partial curve, poor fit]
12 | COc1cc(NC(=O)c2cc(C(C)C)on2)c(OC)cc1Cl | active: 13.1 µM
13 | CCOc1ccc(OCc2ccc(C(=O)NCc3ccncc3)o2)cc1 | inactive
14 | Cc1ccc(S(=O)(=O)NCCC(=O)N2CCOCC2)cc1C | inactive
15 | CC(NC(=O)c1ccccc1F)C12CC3CC(CC(C3)C1)C2 (stereo not drawn) | inconclusive [inhibitor, partial curve]
16 | COc1ccccc1-c1csc(NC(=O)c2ccc(N3C(=O)CCC3=O)cc2)n1 | inconclusive [inhibitor, single point]
17 | CSc1ccc(/C=c2\s/c(=C\C(=O)C(C)(C)C)n(CC(=O)NCCC3=CCCCC3)c2=O)cc1 | inconclusive [inhibitor, partial curve]
18 | O=C(OCC(=O)N(CCc1ccccc1)Cc1ccccc1)c1ccccc1O | inconclusive [inhibitor, single point]
19 | COc1ccc(S(=O)(=O)N2CCC(C(=O)NC3CCCC3)CC2)cc1C | inconclusive [inhibitor, partial curve, poor fit]
20 | O=C(CN1CCN(c2ccccc2O)CC1)NC(c1ccccc1)c1ccccc1 | inconclusive [inhibitor, single point]
21 | CC(C)CCN(C(=O)CCSc1ccc(F)cc1)c1c(N)n(Cc2ccccc2)c(=O)[nH]c1=O | active: 9.28 µM
22 | CCC1CCCCN1CCCNC(=O)c1cc2c(=O)oc3ccc(C)cc3c2s1 (stereo not drawn) | inconclusive [inhibitor, single point]
23 | CCOc1ccc(C(=O)Nc2nc3ccccc3[nH]2)cc1OCC | inconclusive [inhibitor, single point]

Row | Compound | Potency
24 | CC(=O)c1sc(-c2ccccc2Cl)nc1C | inactive
25 | c1ccc(-c2cn(-c3ccccc3)c3[n+]2CCS3)cc1 | inconclusive [inhibitor, full curve, poor fit]
26 | COc1ccc(/C=C2\Oc3cc(OC(=O)N4CCOCC4)ccc3C2=O)cc1 | inconclusive [inhibitor, partial curve, poor fit]
27 | CCCCn1c(N)c(N(CC(C)C)C(=O)Cc2ccc3c(c2)OCCO3)c(=O)[nH]c1=O | inconclusive [inhibitor, single point]
28 | CCS(=O)(=O)c1ccc2oc(Nc3ccc(C(C)(C)C)cc3)nc2c1 | inconclusive [inhibitor, single point]
29 | CSCC[C@H](NC(=O)[C@@H]1CSC2c3ccccc3C(=O)N21)C(=O)NC1CCCC1 (stereo partly drawn) | inconclusive [inhibitor, partial curve, poor fit]
30 | CCN1C(=O)/C(=C/c2nc3ccccc3c(=O)n2-c2ccc(C)cc2)c2ccccc21 | inconclusive [inhibitor, partial curve]
31 | Cn1c(N)c(C(=O)COC(=O)c2ccccc2C(=O)c2ccccc2)c(=O)n(C)c1=O | active: 13.1 µM
32 | COCCC(=O)Nc1ccc2c(c1)CN(C(=O)c1ccc(CSC)o1)CC2 | inconclusive [inhibitor, partial curve]
33 | COc1ccc(CCN2C(=O)NC(NS(=O)(=O)c3ccc(NC(C)=O)cc3)(C(F)(F)F)C2=O)cc1OC (stereo not drawn) | inactive
34 | Cc1cc(=O)c2n(Cc3ccc(Cl)cc3)nc[n+]2[nH]1 | inactive
35 | CC(=O)Nc1cccc(NC(=O)C(=O)NCC(c2ccco2)N2CCc3ccccc3C2)c1 (stereo not drawn) | active: 11.7 µM
36 | CC(C)(C)NC(=O)Cn1nnc(-c2ccccc2Cl)n1 | inconclusive [inhibitor, full curve, poor fit]
37 | CCN(CC)C(=O)C1CCCN(c2ccc([N+](=O)[O-])cc2/C=N/NC(=O)c2ccccc2)C1 (stereo not drawn) | inconclusive [inhibitor, single point]
38 | O=C(Nc1ccncc1)c1cc(S(=O)(=O)N2CCCCC2)ccc1Cl | inconclusive [inhibitor, single point]
39 | CC(NC(=S)Nc1ccc(Cl)cc1Cl)C(c1cccs1)N1CCCC1 (stereo not drawn) | inconclusive [inhibitor, single point]
40 | O=C(c1cc(-c2ccncc2)nc2ccccc12)N1CCN(c2ccc(N3CCOCC3)nn2)CC1 | active: 11.7 µM
41 | CC(=O)N1c2ccc(S(=O)(=O)N3CCCC(C(=O)Nc4ccc(F)cc4)C3)cc2CC1C (stereo not drawn) | inconclusive [inhibitor, partial curve, poor fit]
42 | COc1ccccc1CN(C(=O)CNC(=O)c1ccco1)C(C(=O)NCC1CCCO1)c1ccc(OC)c(OC)c1 (stereo not drawn) | inactive
43 | CCC(=O)N1c2ccccc2[C@@H](N(C(C)=O)c2ccccc2)C[C@H]1C | inconclusive [inhibitor, partial curve, poor fit]
44 | Cc1ccc(C2=NC3(CCCC3)N=C2SCC(=O)Nc2ccc3c(c2)OCCO3)cc1 | inconclusive [inhibitor, single point]
45 | COc1ccccc1OCC#CCN1CCCC1 | inactive
46 | O=C(C1CCCN1C(=O)c1cccs1)N1CCN(S(=O)(=O)c2ccc(F)cc2)CC1 (stereo not drawn) | inconclusive [inhibitor, partial curve]

Row | Compound | Potency
47 | COc1cccc(N=Cc2c(O)n(Cc3ccco3)c(=O)[nH]c2=O)c1 | inactive
48 | O=C(Nc1cccc(C(=O)NC2CCCC2)c1)c1ccccc1 | inconclusive [inhibitor, full curve, poor fit]
49 | C#CCOC(=O)c1cc(Cl)c(=O)n(Cc2ccc(Cl)cc2Cl)c1 | inconclusive [inhibitor, full curve, poor fit]
50 | COc1ccc(O)c(/C=N/c2nc3ccccc3n2C)c1 | inactive
51 | CN1CCc2nc3sc(C(=O)C45CC6CC(CC(C6)C4)C5)c(N)c3cc2C1 | active: 9.28 µM
52 | O=C1/C(=C/c2ccc(F)cc2)SC(=S)N1CCCC(=O)N1CCCCC1CCO (stereo not drawn) | active: 11.7 µM
53 | O=c1c(Cl)c(NCc2ccccc2Cl)cnn1C12CC3CC(CC(C3)C1)C2 | inconclusive [inhibitor, full curve, poor fit]
54 | CC(=O)c1c(C)[nH]c(C(=O)Nc2nccs2)c1C | inactive
55 | O=C(c1cc(-c2cccs2)on1)N1CCCc2ccccc21 | inactive
56 | O=C1C(=O)N(c2ccccn2)C(c2ccc(Br)cc2)/C1=C(/O)c1ccc(Br)cc1 (stereo not drawn) | inactive
57 | CSCC[C@H](NC(=O)OC(C)(C)C)c1nnc(SCc2ccccc2)o1 | active: 6.57 µM
58 | COc1ccc(CCNC(=O)C2CCC(=O)N(C3CCCCCC3)C2)cc1 (stereo not drawn) | inconclusive [inhibitor, partial curve]
59 | Cn1c(=O)c2c(nc(CN3CCc4ccccc4C3)n2Cc2ccccc2)n(C)c1=O | active: 13.1 µM
60 | O=C(NCCC1=CCCCC1)C1COc2ccccc2O1 (stereo not drawn) | inactive
61 | CC(C)Nc1nc(NC(C)C)nc(N(C)n2cnnc2)n1 | inactive
62 | CCOC(=O)CSc1nc2ccccc2c(=O)n1Cc1ccco1 | inactive
63 | O=C(NCCN1CCOCC1)c1cc(-c2ccc(F)cc2)nc2ccccc12 | inconclusive [inhibitor, single point]
64 | CC(C)CCN1C(=O)c2ccc(C(=O)Nc3ccccn3)cc2C1=O | inactive
65 | COc1cc(C(=O)NCC(c2ccccc2)N(C)C)ccc1OCC(=O)N1CCOCC1 (stereo not drawn) | inactive
66 | Cc1cccc(N2CCN(C(=O)CCn3c(=O)[nH]c4ccsc4c3=O)CC2C)c1 (stereo not drawn) | inconclusive [inhibitor, partial curve, poor fit]
67 | CCn1c(Cn2nnc(-c3ccccc3)n2)nnc1SCC(=O)Nc1ccc(N(C)C)cc1 | inconclusive [inhibitor, partial curve, poor fit]
68 | Cc1nc(-c2ccc(F)cc2)c(CC(=O)N(C)CC(=O)Nc2ccc(F)cc2)s1 | inactive
